In PubChem BioAssay AID624171 (National Center for Advancing Translational Sciences (NCATS), 2012):
In all, about 410,000 compounds went through this assay and about 1,200 (0.29%) were called active. The inconclusive results got no clear call from the source; some entries with a clear call stand among them for comparison. The call rests on the fitted dose curve; in most records, active means well fitted activation curve with a large enough effect; inconclusive means small, poorly fitted or top-dose-only effect; inactive means flat fitted curve, though single readings scatter. Potencies beside an inconclusive call are fits to weak or partial responses and may not hold up.

Test: qHTS of Nrf2 Activators; further: nearly all actives have a fitted effect of over 65% in size; on activation: % of control where 0% means no effect
Conditions: AREc32 ARE-luciferase reporter (MCF7-derived line), luminescence, 24 h; activation: at 46.1 µM (top of the series)
Summary of the method: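 Luminescent ARE reporter assay in AREc32_Fluc cells: overnight plating at 37 deg C, 24 hr compound incubation, Steady-Glo added, 30 min RT before reading.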
Potency means the concentration at half of the fitted maximal effect; tags describe the fitted curve by direction and shape.

SMILES | activation | Potency
CSc1ncccc1C(=O)OCC(=O)NCCC1=CCCCC1 | inactive: -0.44% | –
CSCCC1C(C#N)=C(N)Oc2n[nH]c(-c3cccs3)c21 (stereo not given) | – | inconclusive: 22.4 µM [activator, single point]
c1ccc(CSc2n[nH]c(-c3ccco3)n2)cc1 | inactive: 2.84% | –
O=C(Nc1cccc(NC(=O)c2cncc(Br)c2)c1)c1cncc(Br)c1 | inactive: -0.0644% | –
C=C1CC(COc2cc(=O)oc3ccccc23)(c2ccccc2)OC1=O (stereo not given) | – | inconclusive: 3.55 µM [activator, full curve, poor fit]
CC(=O)N1CCOc2ccc(S(=O)(=O)N3CCC(C(=O)Nc4ccc(C)c(C)c4)CC3)cc21 | inactive: -0.436% | –
CCc1cccc(C)c1NC(=O)COC(=O)c1c2c(nc3ccccc13)/C(=C\c1cccs1)CCC2 | inactive: 0.191% | –
ClCc1nnc(-c2ccccc2)o1 | – | inconclusive: 20 µM [activator, single point]
COc1ccc(/C=C/C(=O)c2ccc[nH]2)c(OC)c1OC | – | inconclusive: 35.5 µM [activator, single point]
Cc1occc1C(=O)O/N=C(\N)c1ccc(Cl)cc1 | – | active: 6.31 µM
CN(Cc1ccco1)C(=O)c1c[nH]c2ccc(S(=O)(=O)Nc3ccc4c(c3)OCCO4)cc2c1=O | inactive: 0.613% | –
O=C(Nc1cc2c(cc1Br)OCCO2)c1ccco1 | – | inconclusive: 15.8 µM [activator, partial curve, poor fit]
O=C(NCCCn1ccnc1)c1cc(-c2ccccc2)on1 | – | inconclusive: 15.8 µM [activator, partial curve, poor fit]
Cc1ccc(NC(=O)CSc2ncnc3ccccc23)cc1S(=O)(=O)N1CCCCCC1 | – | inconclusive: 35.5 µM [activator, partial curve, poor fit]
CS(=O)(=O)Nc1ccc(C(=O)Nc2cccc([N+](=O)[O-])c2)cc1 | – | active: 6.31 µM
Cc1cc2ccccn2c1C(=O)c1ccc(Cl)c([N+](=O)[O-])c1 | – | inconclusive: 22.4 µM [activator, single point]
CCN(CC)CCOC(=O)c1ccc(NC(=O)c2nn(-c3ccc(C)cc3)c(=O)c3c2c2ccccc2n3C)cc1 | – | inconclusive: 15.8 µM [activator, single point]
CCC1C(=O)CC(c2ccco2)NC1c1ccco1 (stereo not given) | – | inconclusive: 22.4 µM [activator, single point]
CCOc1ccc(NC2=C(Cl)C(=O)N(Cc3ccccc3)C2=O)cc1 | – | inconclusive: 17.8 µM [activator, partial curve, poor fit]
CCOC(=O)c1ccc(NC(=O)c2nc(S(=O)(=O)Cc3ccccc3)ncc2Cl)cc1 | – | active: 3.16 µM
CCOC(=O)N1CCc2c(sc3c2c(=O)n(Cc2ccccc2)c(=O)n3Cc2cccc(Cl)c2)C1 | inactive: -0.705% | –
COc1ccc(-c2ccnc3nc(N4CCOCC4)nn23)cc1 | inactive: 0.36% | –
COC(=O)[C@@]1(Cc2ccc(F)cc2)[C@H]2C(CC(=O)C(=O)N3CCCC3)C(=O)C[C@H]2CN1C(=O)c1ccccc1 (stereo not given in full) | – | inconclusive: 35.5 µM [activator, partial curve, poor fit]
O=C(O)c1c[nH]c2c(C(F)(F)F)cccc2c1=O | inactive: 0.382% | –

SMILES | activation | Potency
Cc1c(C#N)c(NC(=O)CCl)n(Cc2ccc(F)cc2)c1C | – | inconclusive: 5.62 µM [activator, single point]
COc1ccc(-c2noc(-c3ccccc3NC(=O)c3cc(OC)c(OC)c(OC)c3)n2)cc1 | inactive: 8.76% | –
O=c1oc2ccc(Br)cc2cc1-c1nc2ccccc2o1 | – | inconclusive: 3.98 µM [activator, full curve]
Cc1cc(-c2cc(-c3ccc(Cl)cc3)nc(N)c2C#N)co1 | – | inconclusive: 25.1 µM [activator, single point]
Cc1cccc(-c2cc3nc(C)cc(C)n3n2)c1 | – | inconclusive: 11.2 µM [activator, partial curve, poor fit]
COc1ccc(NS(=O)(=O)c2cccc(C(=O)NN=C(C)c3ccco3)c2)cc1 | – | inconclusive: 5.62 µM [activator, partial curve]
COC(=O)C1=C(C(=O)c2ccccc2)C(c2ccc(OC)c(OC)c2)Nc2nnnn21 (stereo not given) | inactive: 10.2% | –
Cn1cc([N+](=O)[O-])c(C(=O)Nc2ccc3c(c2)OCCO3)n1 | – | inconclusive: 31.6 µM [activator, single point]
O=C(CNC(=O)c1cccs1)N/N=C/c1c(F)cccc1Cl | – | inconclusive: 31.6 µM [activator, partial curve, poor fit]
O=C(/C=C\Nc1cccc(F)c1)c1cccs1 | – | active: 3.98 µM
COc1ccc(NC(=O)CCCS(=O)(=O)c2nc(-c3ccc(OC)c(OC)c3)cc(C(F)(F)F)n2)cc1OC | – | inconclusive: 3.98 µM [activator, single point]
Cc1ccc(C(=O)NC(=C(Cl)Cl)S(=O)(=O)c2ccc(Cl)cc2)cc1 | – | inconclusive: 5.62 µM [activator, single point]
Nc1nc(SCC(=O)N2N=C3/C(=C\c4ccco4)CCCC3C2c2ccco2)n[nH]1 (stereo not given) | – | inconclusive: 15.8 µM [activator, single point]
Cn1c(=O)c(/C=C/c2ccccc2)nc2ccccc21 | – | active: 5.01 µM
N/C(=N\OC(=O)c1ccc(Cl)c([N+](=O)[O-])c1)c1ccccc1 | inactive: 8.53% | –
COc1cccc2c1Oc1cc([N+](=O)[O-])cc(N(C)C(C)=O)c1C=C2 | – | inconclusive: 11.2 µM [activator, partial curve, poor fit]
COc1cccc(-c2nc(CS(=O)CC(=O)N3CCN(c4cccc(C(F)(F)F)c4)CC3)c(C)o2)c1 (stereo not given) | inactive: -1.78% | –
COc1ccc(CCNC(=O)C(=O)NCC(c2cccs2)S(=O)(=O)c2ccccc2)cc1 (stereo not given) | inactive: 0.289% | –
N/C(=N\OC(=O)c1ccccc1Br)c1cccc([N+](=O)[O-])c1 | – | inconclusive: 12.6 µM [activator, partial curve, poor fit]
CC(=NNC(=S)N1CCCC1)c1ccccn1 | – | inconclusive: 17.8 µM [activator, single point]
O=C(c1ccncc1)N1N=C(c2ccc(Cl)cc2)CC1c1ccccc1O (stereo not given) | – | inconclusive: 10 µM [activator, partial curve, poor fit]
COc1cc(Cl)cc(/C=C/c2ccc3cccc(O)c3n2)c1OC | – | inconclusive: 2.51 µM [activator, full curve, poor fit]
CCOC(=O)Cc1[nH]nc2c1C(C1C=CCCC1)C(C#N)=C(N)O2 (stereo not given) | – | inconclusive: 28.2 µM [activator, single point]
OC[C@@H]1CN(CCN2CCOCC2)C[C@H](n2cnc3c(Nc4ccccc4)ncnc32)O1 | inactive: -0.904% | –

SMILES | activation | Potency
Cc1cc(=O)[nH]c(N/N=C/c2c[nH]c3ccccc23)n1 | – | inconclusive: 15.8 µM [activator, single point]
CCOc1ccc(CCNC(=O)c2cc3c(-c4cccc(OC)c4)nn(C)c3s2)cc1OCC | inactive: -0.822% | –
Oc1ccc(Cl)cc1C=Nc1ccccc1Br | inactive: -0.391% | –
O=C(O)/C=C/C(=O)N(CC1CCCO1)C1CC(=O)N(c2c(Cl)cccc2Cl)C1=O (stereo not given) | – | inconclusive: 25.1 µM [activator, single point]
CCOc1ccc(NC(=O)Cn2c(=O)cc(C)c3c(C)nn(-c4ccc(CC)cc4)c32)cc1 | inactive: -0.668% | –
Cc1cccc(/C=C/C(=O)c2ccc([N+](=O)[O-])o2)c1 | – | inconclusive: 3.55 µM [activator, partial curve, poor fit]
CCCc1cc(=O)[nH]c(Nc2ccc(O)cc2C)n1 | – | inconclusive: 28.2 µM [activator, single point]
CCc1cccc(NC(=O)COc2cc(=O)n(CC)c3ccccc23)c1 | inactive: 0.251% | –
Cc1nnnn1/C(=C\c1ccccc1)C(=O)OCC(=O)N1CC2(C)CC1CC(C)(C)C2 (stereo not given) | – | inconclusive: 22.4 µM [activator, single point]
O=C(N/N=C/C=C/c1ccco1)c1cnccn1 | – | inconclusive: 10 µM [activator, partial curve, poor fit]
CCOc1ccccc1CN1CCc2nc(Nc3ccccc3)ncc2C1 | inactive: 8.39% | –
COc1ccc(C(C#N)=C2C=CC(=NO)C(C)=C2Cl)cc1 | – | inconclusive: 20 µM [activator, partial curve, poor fit]
CC(=O)c1nc(-c2ccccc2)sc1C | – | inconclusive: 17.8 µM [activator, single point]
O=C(CCl)Oc1ccc2occ(C(=O)c3cccs3)c2c1 | – | inconclusive: 15.8 µM [activator, single point]
O=C(Nc1nc2ccc(Br)cc2s1)c1ccco1 | – | active: 7.94 µM
COc1ccc(Nc2nnc(SC(C(=O)Nc3cc(C)ccc3C)c3ccccc3)s2)cc1 (stereo not given) | inactive: 2.16% | –
c1ccc(-c2nc(-c3ccccn3)no2)cc1 | – | inconclusive: 3.55 µM [activator, partial curve, poor fit]
CC1=NN(c2ccccc2)C(=O)/C1=C\c1ccc(Oc2ccc([N+](=O)[O-])cc2[N+](=O)[O-])cc1 | – | inconclusive: 35.5 µM [activator, single point]
O=c1cc(O)c2sc3nc(-c4ccccc4)cc(C(F)(F)F)c3c2[nH]1 | – | inconclusive: 20 µM [activator, single point]
COc1ccc(-c2nc(S(=O)(=O)c3ccc(C)cc3)c(NCc3ccccc3)o2)cc1 | inactive: -0.537% | –
Cc1ccc(O)c(NC(=O)COCc2cc(-c3ccco3)on2)c1 | – | inconclusive: 5.01 µM [activator, partial curve]
Cc1ccc(-c2cc(C(=O)Nc3cccnc3)c3ccccc3n2)o1 | – | inconclusive: 22.4 µM [activator, single point]
